Patent US10383938B2 (priority 2010, dated 2019)

Tested on: B16Ova melanoma tumor cells
Test: Mouse prophylactic anti-tumor immunization model (Example 9)
Format: in vivo, C57/B1 male mice
Conditions: 20 μg ovalbumin alone or + 1.0 mg/Kg Cmpd of Example 1, two boosts at two week intervals; 4E5 B16Ova cells intradermally; 11 days after tumor injection; product of major and minor diameters
Description: One week following the final boost, each mouse was injected intradermally with 4E5 B16Ova melanoma tumor cells. Mice were sacrificed 11 days following tumor injection, tumors were measured at their major and minor diameters, and the products of the two measurements were determined. The mean tumor size in mm^2+/−standard deviation (s.d.) for each group was determined.

Molecule: CCCCCCCCCCCCCCCCCC(=O)NCCCCOn1c(CCCC)nc2c(N)nc3ccccc3c21 [N-(4-{[4-amino-2-butyl-1H-imidazo[4,5-c]quinolin-1-yl]oxy}butyl)octadecanamide]
- Mean Tumor Size (s.d.): 0.99 (0.81) mm^2

B1: Ovalbumin: ovalbumin antigen, 20 μg, immunization material given alone (protein, UniProt P01012 2-386, looked up)
Ovalbumin: GSIGAASMEFCFDVFKELKVHHANENIFYCPIAIMSALAMVYLGAKDSTRTQINKVVRFDKLPGFGDSIEAQCGTSVNVHSSLRDILNQITKPNDVYSFSLASRLYAEERYPILPEYLQCVKELYRGGLEPINFQTAADQARELINSWVESQTNGIIRNVLQPSSVDSQTAMVLVNAIVFKGLWEKAFKDEDTQAMPFRVTEQESKPVQMMYQIGLFRVASMASEKMKILELPFASGTMSMLVLLPDEVSGLEQLESIINFEKLTEWTSSNVMEERKIKVYLPRMKMEEKYNLTSVLMAMGITDVFSSSANLSGISSAESLKISQAVHAAHAEINEAGREVVGSAEAGVDAASVSEEFRADHPFLFCIKHIATNAVLFFGRCVSP
- Mean Tumor Size (s.d.): 10.18 (8.95) mm^2
